Laboratory results from the RNAGym collection of RNA variant scans (doi:10.1093/nar/gkz1192).
The source gives no read counts; variants with many changes may rest on few reads.

B1: CPEB3 Ribozyme (parent)
chain: UAACAGGGGGCCACAGCAGAAGCGUUCACGUCGCAGCCCCUGUCAGAUUCUGGUGAAUCUGCGAAUUCUGCUGUAUAUCUC

Variants of: B1
Assay: self-cleavage, relative activity (ratio to wild type); higher = more cleavage; in vitro, sequencing
How it was run: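 Relative activity was defined as the cleaved/total read fraction for a variant divided by the same fraction for the unmutated ribozyme. CPEB3 self-cleaving ribozyme libraries were made by rounds of error-prone PCR, barcoded, and transcribed in vitro with T7 RNA polymerase for 5 hours at 37°C, and cleavage ran through transcription plus a 15 min DNase I step before EDTA. Illumina sequencing of template-switched reverse transcripts gave the reads, and DNA sequencing mapped the barcodes. Averages come from three batches, using variants with at least 5 reads.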

Variant | self-cleavage
UAACAGGGGGCCACAGCAGAGGCGUUCACGUCGCAGCCCCUGCCAGAUUCUAGUGAAUCUGCGAAUUCUGCUGUAUAUCUC [A21G U43C G52A] | 0.17
UAACAGGGGGCCACAGCAGAGGCGUUCACGUCGCAGCCCCUGCCAGACUCUGAUGAAUCAGCGAAUUCCGCUGUAUAUCUC [A21G U43C U48C G53A U60A U69C] | 0.16
UAACAGGGGGCCACAGCAGAGGCGUUCACGUCGCAGCCCCUGCCAGAUUCAGGUGAAUCUGCGAAUUCUGCUGUAUAUCUC [A21G U43C U51A] | 0.41
UAACAGGGGGCCACAGCAGAGGCGUUCACGUCGCAGCCCCUGCCAGAUUCAGGUGAAUCUGCGGAUUCCGCCGUAUAUCUC [A21G U43C U51A A64G U69C U72C] | 0.07
UAACAGGGGGCCACAGCAGAGGCGUUCACGUCGCAGCCCCUGCCAGAUUCUGGCGGAUCUGCGAAUUCCGCUGUAUAUCCC [A21G U43C U54C A56G U69C U80C] | 0.31
UAACAGGGGGCCACAGCAGAGGCGUUCACGUCGCAGCCCCUGCCAGAUUCUGGCGAACCUGCGAAUUCUGCUGUAUAUCUC [A21G U43C U54C U58C] | 0.15
UAACAGGGGGCCACAGCAGAGGCGUUCACGUCGCAGCCCCUGCCAGAUUCUGGCGAACCUGCGUAUUCUGCUGUAUAUCUC [A21G U43C U54C U58C A64U] | 0.16
UAACAGGGGGCCACAGCAGAGGCGUUCACGUCGCAGCCCCUGCCAGAUUCUGGUGAACCUGCGAAUUCUGCUGUAUAUCUC [A21G U43C U58C] | 0.26
UAACAGGGGGCCACAGCAGAGGCGUUCACGUCGCAGCCCCUGCCAGAUUCUGGUGAAUCUGCGAACUCUGAUGUAUAUCUC [A21G U43C U66C C71A] | 0.2
UAACAGGGGGCCACAGCAGAGGCGUUCACGUCGCAGCCCCUGCCAGAUUCUGGUGAAUCUGCGAAGUCUGCUGUAUAUCUC [A21G U43C U66G] | 0.25
UAACAGGGGGCCACAGCAGAGGCGUUCACGUCGCAGCCCCUGCCAGAUUCUGGUGAAUCUGCGAAUCCUGCUGCAUACCUC [A21G U43C U67C U74C U78C] | 0.06
UAACAGGGGGCCACAGCAGAGGCGUUCACGUCGCAGCCCCUGCCAGAUUCUGGUGAAUCUGCGAAUGCUGCUGUAUAUCUC [A21G U43C U67G] | 0.13
UAACAGGGGGCCACAGCAGAGGCGUUCACGUCGCAGCCCCUGCCAGAUUCUGGUGAAUCUGCGAAUUCCGCUGUAUAUCUC [A21G U43C U69C] | 0.18
UAACAGGGGGCCACAGCAGAGGCGUUCACGUCGCAGCCCCUGCCAGAUUCUGGUGAAUCUGCGAAUUCCGCCGUAUAUCUC [A21G U43C U69C U72C] | 0.17
UAACAGGGGGCCACAGCAGAGGCGUUCACGUCGCAGCCCCUGCCAGAUUCUGGUGAAUCUGCGAAUUCUGCCGUAUAUCUC [A21G U43C U72C] | 0.35
UAACAGGGGGCCACAGCAGAGGCGUUCACGUCGCAGCCCCUGCCAGAUUCUGGUGAAUCUGCGAAUUCUGCGGUAUAUCUC [A21G U43C U72G] | 0.31
UAACAGGGGGCCACAGCAGAGGCGUUCACGUCGCAGCCCCUGGCAGAUUCUGGUGAGUCUGCGAAUUCUGCUGUAUAUCUC [A21G U43G A57G] | 0.4

Variant | self-cleavage
UAACAGGGGGCCACAGCAGAGGCGUUCACGUCGCAGCCCCUGUCAGAAUCUGGUGAAUCUGCGAAUUCAGCUGUAUAUCUC [A21G U48A U69A] | 0.1
UAACAGGGGGCCACAGCAGAGGCGUUCACGUCGCAGCCCCUGUCAGACUCUGGUGAUUCUGCGAAUUCUGCUGUAUAUCAC [A21G U48C A57U U80A] | 0.11
UAACAGGGGGCCACAGCAGAGGCGUUCACGUCGCAGCCCCUGUCAGACUCUGGUGAAUCUGCGGAUUCUGCUGUAUAUCUC [A21G U48C A64G] | 0.2
UAACAGGGGGCCACAGCAGAGGCGUUCACGUCGCAGCCCCUGUCAGACACUGGUGAAUCUGCGUAUUCUGCUGUACACCUC [A21G U48C U49A A64U U76C U78C] | 0.09
UAACAGGGGGCCACAGCAGAGGCGUUCACGUCGCAGCCCCUGUCAGACCCUGGUGAAUCUGCGAAUUCUGCUGUAUAUCUC [A21G U48C U49C] | 0.18
UAACAGGGGGCCACAGCAGAGGCGUUCACGUCGCAGCCCCUGUCAGACUCUGGUGAACCAGCGAAUUCUGCUGUAUAUCUC [A21G U48C U58C U60A] | 0.15
UAACAGGGGGCCACAGCAGAGGCGUUCACGUCGCAGCCCCUGUCAGACUCUGGUGAAUCUGCGAACUCUGCUGUAUAUCUC [A21G U48C U66C] | 0.23
UAACAGGGGGCCACAGCAGAGGCGUUCACGUCGCAGCCCCUGUCAGACUCUGGUGAAUCUGCGAAUUCUGCAGUAUAUCUC [A21G U48C U72A] | 0.06
UAACAGGGGGCCACAGCAGAGGCGUUCACGUCGCAGCCCCUGUCAGACUCUGGUGAAUCUGCGAAUUCUGCCGUAUAUCUC [A21G U48C U72C] | 0.35
UAACAGGGGGCCACAGCAGAGGCGUUCACGUCGCAGCCCCUGUCAGACUCUGGUGAAUCUGCGAAUUCUGCUGUAAAUCUC [A21G U48C U76A] | 0.25
UAACAGGGGGCCACAGCAGAGGCGUUCACGUCGCAGCCCCUGUCAGACUCUGGUGAAUCUGCGAAUUCUGCUGUACACCUC [A21G U48C U76C U78C] | 0.25
UAACAGGGGGCCACAGCAGAGGCGUUCACGUCGCAGCCCCUGUCAGACUCUGGUGAAUCUGCGAAUUCUGCUGUAUACCUC [A21G U48C U78C] | 0.24
UAACAGGGGGCCACAGCAGAGGCGUUCACGUCGCAGCCCCUGUCAGAUACUGGUGGAUCUGCGAAUUCUGCUGUAUAUCUC [A21G U49A A56G] | 0.23
UAACAGGGGGCCACAGCAGAGGCGUUCACGUCGCAGCCCCUGUCAGAUACUGGUGAGUCUGCGAAUUCUGCUGUAUAUCUC [A21G U49A A57G] | 0.14
UAACAGGGGGCCACAGCAGAGGCGUUCACGUCGCAGCCCCUGUCAGAUCCUGGUGAAUCUGCGAAUUCUGCUGUAUCUCUC [A21G U49C A77C] | 0.09
UAACAGGGGGCCACAGCAGAGGCGUUCACGUCGCAGCCCCUGUCAGAUCCUGGCGAAUCUGCGAAUUCUGCUGUAUAUCUC [A21G U49C U54C] | 0.13
UAACAGGGGGCCACAGCAGAGGCGUUCACGUCGCAGCCCCUGUCAGAUCCUGGCAAAUCUGCGGAUUCUGCUGUAUACCUC [A21G U49C U54C G55A A64G U78C] | 0.09
